Test results taken from PMC4336329 (PLoS ONE, 2015).
The campaign covered roughly 310,000 compounds. About 14,000 (4.5%) showed an effect of 50% or more. The effect is printed as a negative number. The list shows a part of the results.

target: human ether-à-go-go-related gene (hERG) potassium channel (human, UniProt Q12809); experiment: primary screen, population patch clamp on CHO cells stably expressing hERG
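Note: peak tail current of the secondary pulse compared with the same well before compound.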

human ether-à-go-go-related gene (hERG) potassium channel, sequence (Q12809 whole entry, looked up): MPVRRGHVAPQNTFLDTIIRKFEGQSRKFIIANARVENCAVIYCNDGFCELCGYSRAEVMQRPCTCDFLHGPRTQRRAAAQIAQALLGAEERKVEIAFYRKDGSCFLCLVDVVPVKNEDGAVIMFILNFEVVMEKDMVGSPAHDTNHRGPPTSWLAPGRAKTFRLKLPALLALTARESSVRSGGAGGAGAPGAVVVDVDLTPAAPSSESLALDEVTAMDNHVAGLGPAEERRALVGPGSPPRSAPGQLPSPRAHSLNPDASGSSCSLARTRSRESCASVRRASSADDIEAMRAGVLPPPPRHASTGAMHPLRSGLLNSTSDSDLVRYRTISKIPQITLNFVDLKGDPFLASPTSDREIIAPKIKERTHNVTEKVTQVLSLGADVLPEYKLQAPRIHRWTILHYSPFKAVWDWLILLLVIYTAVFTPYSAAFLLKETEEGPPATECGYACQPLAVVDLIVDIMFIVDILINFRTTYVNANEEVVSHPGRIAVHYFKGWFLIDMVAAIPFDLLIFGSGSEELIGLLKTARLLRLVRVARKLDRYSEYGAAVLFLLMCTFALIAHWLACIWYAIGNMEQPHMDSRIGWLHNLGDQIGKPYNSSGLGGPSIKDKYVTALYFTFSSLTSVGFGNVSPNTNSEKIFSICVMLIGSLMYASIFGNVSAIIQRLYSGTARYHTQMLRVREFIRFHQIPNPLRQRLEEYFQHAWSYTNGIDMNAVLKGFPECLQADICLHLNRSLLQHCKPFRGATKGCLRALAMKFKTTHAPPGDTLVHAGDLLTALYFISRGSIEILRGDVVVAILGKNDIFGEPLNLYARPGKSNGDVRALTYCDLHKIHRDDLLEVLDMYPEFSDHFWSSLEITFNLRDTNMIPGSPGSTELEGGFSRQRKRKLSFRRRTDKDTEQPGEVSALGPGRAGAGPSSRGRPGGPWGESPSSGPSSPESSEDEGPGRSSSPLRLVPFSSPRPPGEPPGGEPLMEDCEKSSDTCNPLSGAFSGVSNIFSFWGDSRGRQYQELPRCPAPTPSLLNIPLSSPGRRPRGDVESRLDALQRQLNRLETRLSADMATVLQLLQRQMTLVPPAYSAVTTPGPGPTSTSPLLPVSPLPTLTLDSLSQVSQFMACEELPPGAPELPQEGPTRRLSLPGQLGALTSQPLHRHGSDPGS

| SMILES | hERG current change (%, negative = inhibition) at 10uM [%] |
| --- | --- |
| Cc1cc(NC(=O)CCC(=O)N(Cc2ccco2)C2(C(=O)NC3CCCC3)CCCCC2)no1 | -4.32 |
| O=C(COC(=O)c1ccc([N+](=O)[O-])s1)Nc1cccc(S(=O)(=O)NC2=NCCCCC2)c1 | -18.5 |
| Cc1nn(CC#N)c(=O)n1-c1cccc(F)c1 | 20.3 |
| Cc1ccc(S(=O)(=O)N2CCN(C(=O)CSC3CCCC3)CC2)c(C)c1 | -42.4 |
| NC(=O)NCCC1=CCCCC1 | 15.2 |
| CCN(CC)S(=O)(=O)c1ccc(OC)c(NC(=O)C2CC(=O)N(c3ccc(C)cc3)C2)c1 (centres unmarked) | -19.6 |
| CN(C)CC/C=C1/c2cc(F)ccc2CSc2ccc(F)cc21 | -43.2 |
| CCCCn1c(O)c(C(C)=NCCc2ccccc2)c(=O)[nH]c1=O | 0.0399 |
| O=C(CNS(=O)(=O)c1cccs1)N1CCN(c2ccccn2)CC1 | -24 |
| CCCN1CCC(NC(=S)Nc2ccc(S(N)(=O)=O)cc2)CC1 | 10.7 |
| COc1ccc(C(C2C(=O)CC(C)(C)CC2=O)C2C(=O)CC(C)(C)CC2=O)cc1CO | -11.9 |
| Cc1ccc(C)c(N2CCN(S(=O)(=O)c3ccc(-c4cc(C)no4)s3)CC2)c1 | 16.9 |
| O=C(NC1CCCCC1)C(c1ccncc1)N(C(=O)c1csnn1)c1ccccc1 (centres unmarked) | 11.9 |
| CCOc1ccc(C(=O)NC(=S)NC2CCCC2)cc1[N+](=O)[O-] | -0.762 |
| CCN(CC)CC(=O)Nc1cc(N(C)C)nc2ccccc12.O=C(O)C(=O)O | -35.3 |
| Cc1ccc(NC(=O)COC(=O)CCc2c[nH]c3ccccc23)cc1[N+](=O)[O-] | 10.4 |
| CCCC(C)NC1=NCCCCC1 (centres unmarked) | -0.474 |
| COC(=O)c1c(NC(=O)C2C3C=CC(CC3)C2C(=O)O)sc(C)c1C (centres unmarked) | -2.36 |
| N=C1/C(=C/c2ccc(Br)o2)C(=O)N=C2SC(CC(=O)N3CCCC3)=NN12 | 6.8 |
| COc1ccc(NC(=O)CN(C)C(=O)c2cn(-c3ccccc3)nc2-c2ccc(F)cc2)cc1 | -7.18 |
| COc1ccc2c(c1)CCc1c(C(=O)N3CCCCCC3)noc1-2 | -15.8 |
| CCOC(=O)C1=C(CS(=O)(=O)c2ccc(C)cc2)NC(=O)NC1c1ccc(O)c(OC)c1 (centres unmarked) | 19.6 |

| SMILES | hERG current change (%, negative = inhibition) at 10uM [%] |
| --- | --- |
| O=C(COC(=O)/C=C/c1ccc(Cl)c(Cl)c1)NC1CCCC1 | 20 |
| CCN(c1ccccc1)S(=O)(=O)c1cc(C(=O)OC(C)C(=O)Nc2ccc3c(c2)OCCO3)ccc1C (centres unmarked) | 14.1 |
| Cc1cc(C)n2nc(C(=O)OCCOc3ccc(F)cc3)nc2n1 | -12.3 |
| CC(NC(=O)COC(=O)Cn1cnc2ccccc2c1=O)C1CC2CCC1C2 (centres unmarked) | 4.01 |
| COc1ccc(-c2noc(CCC(=O)NCC3CCCO3)n2)cc1OC (centres unmarked) | -10 |
| O=C(O)CN1C(=O)C(=O)N(Cc2ccccc2F)C1=O | 14.4 |
| Cc1ccc(CN2CCN(CC(=O)NC(C)CCc3ccccc3)C2=O)cc1 (centres unmarked) | -20.6 |
| CNC(=O)c1sc(=S)n(-c2ccc(OC)cc2)c1N | 13.7 |
| O=C(NCCN1CCN(c2ccccc2)CC1)c1ccc(NC(=O)C2CCCO2)cc1 (centres unmarked) | 11.7 |
| COc1cccc(CNc2ccc(S(=O)(=O)N3CCN(C)CC3)cn2)c1 | -7.97 |
| COc1ccc(NC(=O)NNC(=O)COc2ccc3ccccc3c2)cc1 | 13.3 |
| Cc1cc2c(c(=O)n1CCN(C)C)C(c1ccccc1Br)C(C#N)=C(N)O2 (centres unmarked) | -26.1 |
| CCn1cc(S(=O)(=O)CC(=O)Nc2cc(C)on2)c2ccccc21 | 11.8 |
| O=C(Nc1ccccc1C(=O)N1CCCCC1)c1ccc(Cl)cc1Cl | 0.654 |
| CCO[C@H]1OC(C(=O)NC2CC2)=C[C@@H](C)[C@@H]1CCCO | 8.2 |
| O=C(O)CC1CCS(=O)(=O)C1 (centres unmarked) | 10.2 |
| C=CCSc1nc(O)c(C2OC(=O)c3c2ccc(OC)c3OC)c(=O)n1-c1ccccc1 (centres unmarked) | -3.16 |
| COC(=O)c1ccc(C(NC(=O)OCc2ccccc2)/C(C)=C/[C@@H](C)C(=O)NCc2ccc(-c3ccccc3)cc2)cc1 (some centres unmarked) | -0.583 |
| Cc1csc(NC(=O)C(CC(C)C)NS(=O)(=O)c2ccc3c(c2)oc(=O)n3C)n1 (centres unmarked) | 4.89 |
| Cc1cc(C)nc(SCc2cc(=O)c(OC(=O)c3cc([N+](=O)[O-])ccc3Cl)co2)n1 | -2.51 |
| CC(=O)Nc1cccc(NC(=O)CSc2nnc(NC(=O)C3CC3)s2)c1 | 22.6 |
| Cc1cc(NC(=O)CSc2nnc(-c3c[nH]c4ccccc34)n2C)no1 | 16.7 |

| SMILES | hERG current change (%, negative = inhibition) at 10uM [%] |
| --- | --- |
| c1ccc(CCN2CCC(N3CCN(c4ccccc4)CC3)CC2)cc1 | -66.4 |
| COc1ccc(CN2CCCC(C(=O)c3ccc(Cl)cc3)C2)cc1Cn1cccn1 (centres unmarked) | -83.9 |
| CCN1C(=O)[C@H]2[C@@H](c3ccc(C)cc3)N3C(=O)N(c4ccccc4)C(=O)[C@@]3(C)[C@H]2C1=O | -0.779 |
| CCN(CC)C(=O)c1sc2nc(-c3cccs3)cc(-c3cccs3)c2c1N | -8.14 |
| Cn1c(Cc2ccccc2)nnc1SCC(=O)NC1CCCC1 | -5.37 |
| CC(=O)Nc1ccc(C(=O)N/N=C/c2cccnc2)cc1 | 24.6 |
| COc1cccc(-c2nnc(NC(=O)C(C)C)o2)c1 | 4.47 |
| CCN1/C(=C2\SC(=S)N(Cc3ccccc3)C2=O)Sc2ccccc21 | 13.6 |
| Cc1ccc(C)c(OCCC(=O)OCC(=O)Nc2ccc(N3CCOCC3)cc2)c1 | 19.6 |
| Cn1c(OCc2cccnc2)nc2c1c(=O)n(Cc1ccc(F)cc1)c(=O)n2C | -51.9 |
| COc1ccccc1CCC(=O)N1CCN(S(=O)(=O)c2cc(C(F)(F)F)ccc2Cl)CC1 | -19.1 |
| CC(/C=C/c1ccccc1)=N/NC(=O)c1cc([N+](=O)[O-])cc([N+](=O)[O-])c1 | 8 |
| CCC1NC(=S)NC(C)=C1C(=O)c1ccccc1 (centres unmarked) | -5.77 |
| CCOc1ccc(CN2C(=O)c3ccccc3C2=O)cc1C(=O)O | 15.7 |
| COc1ccccc1CN1CCNC(=O)C1CC(=O)NCCCN1CCCC1=O (centres unmarked) | -11.8 |
| C#CCn1c(=NC(=O)CN2C(=O)CCC2=O)sc2cccc(C)c21 | -30.6 |
| Cc1c(NC(=O)c2cccc(NC(=O)Cc3ccc(Cl)cc3)c2)c(=O)n(-c2ccccc2)n1C | -3.02 |
| CN(C)CCCNc1ccc(-c2nn(C)c(=O)c3ccccc23)cc1[N+](=O)[O-] | -16 |
| CCN1CCN(Cc2ccc(NC(=O)Nc3ccc(SC)cc3)cc2)CC1 | -44.5 |
| CSc1nc(N)c(NC(=O)c2ccc(Br)o2)c(=O)[nH]1 | 21.8 |
| CN(c1ccccc1)S(=O)(=O)c1ccc(C(=O)NCC2CCCO2)cc1 (centres unmarked) | -8.7 |
| CCc1nc(NCc2cccnc2)c2oc3ccccc3c2n1.Cl | -39.6 |

| SMILES | hERG current change (%, negative = inhibition) at 10uM [%] |
| --- | --- |
| c1ccc(CCNc2ncnc3nc[nH]c23)cc1 | 15.9 |
| COc1cc(/C=N/NC(=O)c2cccc(C)c2)ccc1OCC(=O)Nc1ccccc1 | -20.2 |
| O=C1c2cnccc2CN1Cc1ccccc1 | -11.6 |
| CCNc1nc(Oc2ccc(=O)n(-c3ccccc3)n2)nc(N(C)C)n1 | 8.07 |
| O=C(N/N=C/c1ccc(OCc2cnc(Cl)s2)cc1)c1ccncc1 | -3.54 |
| CC1CC(C)CN(C(=O)CCNC(=O)Cn2ccc3ccccc3c2=O)C1 (centres unmarked) | -5.15 |
| Cc1ccccc1CSCC(Nc1ccc(C(=O)O)cc1[N+](=O)[O-])C(=O)O (centres unmarked) | 4.1 |
| COc1ccc2nc(C)cc(N3CCC(C(N)=O)CC3)c2c1 | -33.7 |
| Brc1cc2ccccc2[n+](Cc2ccccc2)c1.[Br-] | -21.7 |
| O=C(NCc1ccco1)C(=O)NCC1OCCN1S(=O)(=O)c1ccc(Cl)cc1 (centres unmarked) | -10.1 |
| Cc1ccc(CN(C(=O)c2ccco2)C(C(=O)NC2CCCC2)c2ccc(N3CCOCC3)cc2)cc1 (centres unmarked) | -29.5 |
| O=C1CSCC(=O)N1c1ccccc1 | 6.15 |
| CCOC(=O)NC(=O)/C(C#N)=C\Nc1ccc(Cl)cc1Cl | 10.7 |
| S=C(NCc1cccnc1)Nc1ccc2c(c1)OCO2 | -0.573 |
| CC(C)[C@H](NC(N)=O)C(=O)Nc1ccc(F)c(Cl)c1 | 30.6 |
| O/N=C(/Cc1ccccn1)c1ccccc1 | -0.738 |
| Clc1ccc(OCc2nn3c(-c4ccco4)nnc3s2)c(Cl)c1 | -21.8 |
| O=C(C1COc2ccccc2O1)N1CCCCC1 (centres unmarked) | 6.42 |
| Cc1ccc(S(=O)(=O)N(C)c2ccc(C(=O)Nc3ccc(C)cn3)cc2)cc1 | 14.3 |
| CC1CN(CCOc2cccc(Oc3ccccc3)c2)CC(C)O1.O=C(O)C(=O)O (centres unmarked) | 5.01 |
